These results are taken from ChEMBL document CHEMBL4888484, “Replenishing the malaria drug discovery pipeline: Screening and hit evaluation of the MMV Hit Generation Library 1 (HGL1) against asexual blood stage Plasmodium falciparum ,using a nano luciferase reporter read-out” (2022).

SMILES strings stand for the structures. About 540 (0.36%) of roughly 150,000 compounds showed an effect of 50% or more. Some of the results follow.

The test system of this test is Plasmodium falciparum. Briefly: Primary screen in NF54 nanoGlo assay, in single point, at 2uM, 72h; a lower Z score goes with more inhibition. The conditions noted are these: timepoint 72 hour. The class given is functional, Erythrocyte.
`Cc1cnc(NCc2ccc3nc(C)sc3c2)s1`: the “% Inhibition” value was determined as 2% and the Z score is -0.3.

With `CNc1ccccc1C(=O)OC1OC(C)C(O)C(O)C1O` (stereo unspecified), the “% Inhibition” value is on record as 26% and the Z score was -2.96.

For the molecule `Cn1cncc1-c1noc(C2CCC(c3ccccc3)CC2)n1` (stereo unspecified), the “% Inhibition” value is on record as -11% and the Z score is 1.9.

On to `O=C(C[C@H]1CCS(=O)(=O)C1)Nc1nc2ccccc2s1`, for which the “% Inhibition” value is given as -9% and the Z score was 1.14.

For `CCC(C(=O)Nc1ncccc1C)(C(F)(F)F)C(F)(F)F`, the “% Inhibition” value is recorded as -9% and the Z score worked out at 1.69.

Regarding `Cc1noc(CN(C)c2nccc(N3CCN[C@@H]4CS(=O)(=O)C[C@@H]43)n2)n1`, the “% Inhibition” value is recorded as -16% and the Z score is 2.21.

For the molecule `COc1ccc(CN2CCCC23CCN(c2cccc(C)n2)CC3)cc1O`, the “% Inhibition” value is reported as -4% and the Z score is 0.82.

On to `O=C(Nc1ccsc1C(=O)NCc1ccccc1)c1cnccn1`, for which the “% Inhibition” value is given as 3% and the Z score is on record as -0.54.

On to `Cc1nc(-c2scnc2C)n(CC(C)(C)O)n1`, for which the “% Inhibition” value is on record as -3% and the Z score is reported as 0.34.

As for `COC(=O)Nc1nc(-c2ccccc2)c(-c2ncc(C)c(OC)c2C)s1`, the “% Inhibition” value is reported as -5% and the Z score came to 0.59.

Take `CCOc1ccc(CN2CC[C@H](CO)[C@H](N(C)C)C2)cc1`: the “% Inhibition” value is on record as 2% and the Z score is -0.34.

As to `Cc1c(C(=O)N2CCN(C3CCCCC3)CC2)n(C)c2ccc(F)cc12`, the “% Inhibition” value is listed as 4% and the Z score is recorded as -0.61.

In the case of `CC1(C)CNCc2cnn(-c3ccccc3F)c2C1`, the “% Inhibition” value was determined as 3% and the Z score was -0.5.

Turning to `COCCOCC(=O)N(Cc1ccccn1)c1ccc(Cl)cc1`, the “% Inhibition” value is on record as -9% and the Z score is reported as 0.95.

For `Cc1oc2ccn(Cc3cccc(F)c3)c(=O)c2c1C(=O)N1CCN(C(C)C)CC1`, the “% Inhibition” value is -20% and the Z score came to 2.9.

For the molecule `CC[C@H](C)N(Cc1csc(COc2ccccc2OC)n1)C(=O)c1ccc(OC)cc1`, the “% Inhibition” value is given as -15% and the Z score is 2.03.

For `O=C([C@H]1C[C@H](Oc2ccccc2)CN1C(=O)Cc1cccc(F)c1)N1CCOCC1`, the “% Inhibition” value is -6% and the Z score was 1.22.

Regarding `Cc1cnc(CN(CC(C)C)c2cccc(O)c2)cn1`, the “% Inhibition” value is -15% and the Z score amounted to 1.71.

As to `Cn1ncc2c1CCCN(c1nccn3nc(C(F)(F)F)cc13)C2`, the “% Inhibition” value was -10% and the Z score came out at 1.44.

On to `CCc1ncsc1N1C(=O)[C@@H](C)N(C)C1=O`, for which the “% Inhibition” value is listed as -18% and the Z score is 2.88.

Regarding `Cc1nc(C(=O)N[C@H](c2ccccc2)C2(CO)CCOCC2)no1`, the “% Inhibition” value was -4% and the Z score came out at 0.49.

In the case of `CC1CC(NC(=O)Nc2cnn(C)c2)CCN1Cc1ccccc1` (stereo unspecified), the “% Inhibition” value was -7% and the Z score amounted to 0.71.

Consider `NC(=O)CCNC(=O)Nc1cccc(N)c1`, for which the “% Inhibition” value stood at 24% and the Z score is -2.68.

Consider `Cc1ccc(NC(=O)N(C)Cc2cnc(N)nc2)cc1C(C)C`, for which the “% Inhibition” value is on record as -16% and the Z score is reported as 1.76.

On to `CCOc1ccc(CCNC(=O)CCCn2ccc3cc(S(=O)(=O)N4CCCC4)ccc32)cc1`, for which the “% Inhibition” value is given as 13% and the Z score was -2.27.

Turning to `CC(C)NC(=O)c1ccc(NCCNC(=O)OC(C)(C)C)c(N)c1`, the “% Inhibition” value turned out to be 1% and the Z score is given as -0.15.

For the molecule `CN1CCC(NC(=O)c2cc(C3CC3)on2)C1c1ccccc1` (stereo unspecified), the “% Inhibition” value is on record as 34% and the Z score is recorded as -3.9.

Consider `CCCNC(=O)N1CCC[C@H](Oc2nc(CC)nc3c2CCOCC3)C1`, for which the “% Inhibition” value is on record as -16% and the Z score amounted to 2.54.

For `CCC(CC)c1nnc(NC(=O)CCCn2cnc3c(C)cccc3c2=O)s1`, the “% Inhibition” value is listed as -2% and the Z score was 0.43.

For the molecule `CCCn1ccnc1-c1nccn1-c1ccccc1CCO`, the “% Inhibition” value stood at 14% and the Z score is -1.88.

Turning to `Cc1ccc(C)c(C(=O)c2ccccc2C(=O)N2CCC3(CC2)NC(=O)NC3=O)c1`, the “% Inhibition” value is -7% and the Z score stood at 1.37.

`COCC1(NC(=O)Nc2ccccc2-c2nnnn2C(C)C)CCC1`: the “% Inhibition” value is given as -1% and the Z score was 0.11.

`c1ccc2c(c1)OC[C@@H](c1csc3ncnc(N4CCCCC4)c13)O2`: the “% Inhibition” value is on record as -7% and the Z score was 1.01.

With `CCCN(CCO)C(=O)NCc1cc(C#N)ccc1F`, the “% Inhibition” value was -9% and the Z score came to 1.57.

With `COc1ccc2c(c1)N(Cc1nc(C)cs1)CCO2`, the “% Inhibition” value was -23% and the Z score is listed as 2.33.

As to `Cc1ccc(-n2[nH]c(C(=O)N3CCO[C@@H](CC(F)(F)F)C3)cc2=O)cc1`, the “% Inhibition” value came to 1% and the Z score is listed as -0.08.

`CC(C)(C)OC(=O)N1CCCCC1C(=O)N1CCOC(c2ccccc2)C1` (stereo unspecified): the “% Inhibition” value is reported as -11% and the Z score is given as 1.71.

Turning to `O=C(Nc1ccccc1)NC1CCC2OCCOC2C1` (stereo unspecified), the “% Inhibition” value is given as -3% and the Z score stood at 0.57.

For `CCN(CCOc1ccccc1F)C(=O)COc1cccnc1`, the “% Inhibition” value turned out to be 7% and the Z score was -0.93.

Regarding `Cc1cc(C(=O)N[C@@H](C)C2(N3CCOCC3)CCCC2)[nH]n1`, the “% Inhibition” value is -3% and the Z score is 0.32.

As to `CCn1cnnc1CNc1ccccn1`, the “% Inhibition” value is given as -5% and the Z score is 0.47.

Turning to `COc1ccccc1[C@@]1(CC(=O)N(C)Cc2nonc2C)CC(=O)N(C2CCCC2)C1=O`, the “% Inhibition” value is recorded as 8% and the Z score is given as -1.16.

Regarding `Cc1ccc2c(c1)[nH]c(=O)c1c(C(=O)NCc3c(C)nn(C)c3C)nnn12`, the “% Inhibition” value is 7% and the Z score was -1.26.

Broadly, the % Inhibition is the drop in the measured response relative to a control, in per cent.
